# About 1,700 (0.52%) of roughly 330,000 compounds were called active. The inconclusive results got no clear call from the source; some entries with a clear call stand among them for comparison. Calls come from the whole dose curve; as a rule, active = well fitted inhibition curve with a large enough effect; inconclusive = small, poorly fitted or top-dose-only effect; inactive = no such curve, though single readings can be large or run the other way. Potencies of inconclusive entries are doubtful fits and often do not repeat.
# Molecular target: Beta-lactamase (Escherichia coli (strain K12)) (UniProt P00811)
# Chain of UniProt P00811 (P00811 whole entry, looked up): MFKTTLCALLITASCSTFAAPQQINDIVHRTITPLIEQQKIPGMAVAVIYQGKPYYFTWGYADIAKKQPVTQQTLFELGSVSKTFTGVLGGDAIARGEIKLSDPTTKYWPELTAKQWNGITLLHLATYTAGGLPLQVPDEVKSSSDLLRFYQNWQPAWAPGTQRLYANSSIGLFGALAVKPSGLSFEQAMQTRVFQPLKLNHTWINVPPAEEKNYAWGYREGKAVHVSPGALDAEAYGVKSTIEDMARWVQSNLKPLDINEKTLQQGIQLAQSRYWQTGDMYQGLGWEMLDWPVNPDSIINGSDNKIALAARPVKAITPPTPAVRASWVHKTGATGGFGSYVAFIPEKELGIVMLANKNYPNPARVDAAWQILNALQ
# Assay: qHTS Inhibitors of AmpC Beta-Lactamase (assay without detergent); note: nearly all actives have a fitted effect of over 20% in size
# Settings: AmpC nitrocefin hydrolysis, absorbance 480 nm, 0.0001% Triton; activity change, negative = inhibition: at 57.1 µM (top of the series) unless noted
# Method: NIH Molecular Libraries Probe Production Network [MLPCN] NIH Chemical Genomics Center [NCGC] Assay Provider: Professor Brian Shoichet, UCSF Assay Overview: This aggregation profiling approach exploits the sensitivity of aggregate formation to detergent. Inhibition of b-lactamase is measured in the presence and absence of 0.01% Triton X-100. This particular assay had the prescence of 0.01% Triton X-100. See Pubchem assay "Promiscuous and Specific Inhibitors of AmpC Beta-Lactamase (assay without detergent)" for related screen. Compounds that inhibit only in the absence of detergent are considered likely promiscuous aggregators. A screen of 1,030 compounds was performed in Brian Shoichet's lab in 96-well format. AmpC activity was measured by following the absorbance at 480 nm. Nitrocefin is a chromogenic substrate: while nitrocefin is yellow (lmax 390 nm), the product of its hydrolysis is red (lmax 486 nm, 17,000 M-1). AmpC beta lactamase was provided by Shoichet Lab, UCSF.
# Buffer: 20 mM phosphate buffer, pH 7.0 Triton X-100: No Detergent screen: 0.0001%, Detergent screen: 0.01%. Reagents/Controls: Buffer in columns 3 and 4 as negative control (no enzyme). 5.3 nM AmpC in columns 1, 2, 5-48. Titration of UCSF compound 9 control (from 10 mM, then 1:2) pin-transferred to column 2. Column 1 is neutral (100% activity). Assay Steps: Six uL of reagents were dispensed to 1536-well Greiner black clear bottom plates. Compounds and controls (23 nL) were transferred via Kalypsys PinTool. The plates were incubated for 15 min at room temperature, and then 2 uL of 800 uM solution of nitrocefin was added to start the reaction. The plates were immediately transferred to and read every 20 seconds for 4 min on ViewLux (Perkin-Elmer) High-throughput CCD imager using 480 nm absorbance protocol. During dispense, reagent bottles were kept submerged into 4 deg C water bath. Keywords: NIH Roadmap, MLSCN, MLI, MLSMR, qHTS, NCGC, AmpC Beta-Lactamase, Aggregation
# Potency is the fitted concentration of half-maximal effect; tags give direction and shape of the fitted curve.
Compound,Potency,"activity change, negative = inhibition"
O=C(Cn1c(=O)n(Cc2ccco2)c(=O)c2c3c(sc21)CCCC3)Nc1ccccc1,"inconclusive: 3.98 µM [inhibitor, full curve, poor fit]",
COc1ccc(S(=O)(=O)NC2CC(=O)N(c3ccc(C)c(C)c3)C2)cc1 (stereo not given),"inconclusive: 28.2 µM [inhibitor, single point]",
CCC(=O)NC1(C(F)(F)F)C(=O)NC(C)=C1C#N (stereo not given),"inconclusive: 7.08 µM [inhibitor, partial curve, poor fit]",
O=C(c1ccccc1)c1ccc2nc(-c3ccco3)c(-c3ccco3)nc2c1,active: 25.1 µM,
O=C(COC(=O)c1ccccc1Br)NCc1ccccc1,,inactive: -28.5%
COc1ccc(S(=O)(=O)N2CCN(C(=O)C3CCCCC3)CC2)cc1,,inactive: -0.707%
O=C(Nc1ccccc1)c1nnsc1S(=O)c1ccc(Cl)cc1 (stereo not given),active: 14.1 µM,
O=C(O)c1cc(N/N=C/c2ccc(-c3ccc(F)cc3)o2)ccc1Cl,,inactive: -33.9%
COc1ccc(-c2nc(CS(=O)(=O)CC(=O)Nc3ccc(Cl)cc3)c(C)o2)cc1,active: 3.98 µM,
O=C(Nc1nc2c(Cl)cccc2s1)c1ccc(Br)o1,"inconclusive: 7.94 µM [inhibitor, full curve, poor fit]",
Cc1[nH]c2ccc(C(=O)NCCCN(C)C3CCCCC3)cc2c1C,,inactive: -3.45%
COc1cccc(/C=N/NC(=O)c2c(-c3ccccc3)noc2C)c1O,"inconclusive: 22.4 µM [inhibitor, single point]",
Cc1ccc(NS(=O)(=O)c2cccc(C(=O)NCCCN3CCCC3=O)c2)cc1,,inactive: -5.27%
CC(C)C(=O)Nc1ccccc1N1CCN(S(C)(=O)=O)CC1,active: 0.282 µM,
COc1ccc(C2CC(c3cccc(C)c3)n3ncnc3N2)cc1 (stereo not given),"inconclusive: 8.91 µM [inhibitor, full curve, poor fit]",
COc1cc(C(C(=O)NC(C)(C)C)N(C(=O)CNC(=O)c2cccs2)c2ccccc2)cc(OC)c1OC (stereo not given),"inconclusive: 5.62 µM [inhibitor, single point]",
Cc1cc(C)nc(NC(=O)c2cnc3sccn3c2=O)n1,active: 39.8 µM,
CN(C)CCN(C(=O)c1ccc(C(=O)c2ccccc2)cc1)c1nc2cc3c(cc2s1)OCO3,,inactive: 13.9%
COc1ccccc1N=Nc1nc(-c2ccccc2)c(-c2ccccc2)[nH]1,"inconclusive: 11.2 µM [inhibitor, partial curve]",
NS(=O)(=O)c1ccc(NC(=O)CSc2nc(Nc3ccccc3)nc(N3CCOCC3)n2)cc1,"inconclusive: 7.94 µM [inhibitor, full curve, poor fit]",
COc1cccc(N2CCN(C3CC(=O)N(c4cccc(Cl)c4)C3=O)CC2)c1 (stereo not given),,inactive: 57.3%
O=C(Cn1cc2c(n1)CCCCC2)Nc1ccc(F)cc1F,"inconclusive: 7.08 µM [inhibitor, full curve, poor fit]",
COc1ccc(C(=O)Nc2cccc(-c3ccc(N4CCOCC4)nn3)c2)cc1OC,"inconclusive: 39.8 µM [inhibitor, single point]",
Cc1ccc(C(=O)N2CCN(c3ccccn3)CC2)cc1C,,inactive: 34.4%

Compound,Potency,"activity change, negative = inhibition"
O=S(=O)(NCCOc1ccc(F)cc1)c1ccc2c(c1)OCCO2,"inconclusive: 31.6 µM [inhibitor, single point]",
CCOC(=O)c1c(C)n(C)c2ccc(OCC(N)=O)cc12,"inconclusive: 11.2 µM [inhibitor, partial curve, poor fit]",
COc1ccccc1NC(=O)Nc1ccc2c(c1)CCC2,active: 10 µM,
COc1ccc(-c2noc(C3CCCN(S(=O)(=O)c4cccc(Cl)c4C)C3)n2)cc1OC (stereo not given),,inactive: -3.12%
Cn1c(CS(=O)Cc2c(Cl)cccc2Cl)nnc1SCc1c(Cl)cccc1Cl (stereo not given),"inconclusive: 6.31 µM [inhibitor, single point]",
O=C(c1cccc(Cl)c1)N1CCC(=O)N(C(COCc2cccc(Cl)c2)Cc2ccccc2)CC1 (stereo not given),,inactive: 159%
COc1cccc(NC(=S)N2CCN(S(C)(=O)=O)CC2)c1,,inactive: -3.9%
COc1ccc(NS(=O)(=O)c2cccc(C(=O)N/N=C/c3ccccc3OC)c2)cc1,"inconclusive: 3.16 µM [inhibitor, single point]",
COc1ccc2nc(NC(=O)CN(C)S(=O)(=O)c3cccs3)sc2c1,"inconclusive: 4.47 µM [inhibitor, single point]",
CCOc1ccc(S(=O)(=O)N2CCCCC2)cc1NC(=O)CC1OC(=O)c2ccccc21 (stereo not given),"inconclusive: 31.6 µM [inhibitor, single point]",
O=C(OCC1O[C@@H](OC(=O)c2cc(O)c(O)c(O)c2)[C@@H](OC(=O)c2cc(O)c(O)c(O)c2)[C@@H](OC(=O)c2cc(O)c(O)c(O)c2)[C@@H]1OC(=O)c1cc(O)c(O)c(O)c1)c1cc(O)c(O)c(O)c1 (stereo not given in full),active: 1 µM,
COc1cccc(C(=O)CSc2nnc(-c3cc(OC)c(OC)c(OC)c3)o2)c1,,inactive: 144%
CCCCCCN1CC(O)=C(c2ccccc2)C1=N,,inactive: -20.8%
C=CCOC(=O)C1=C(C)NC(SCC(=O)Nc2ccc(C)c(Cl)c2)=C(C#N)C1c1ccco1 (stereo not given),active: 7.94 µM,
O=C(NCc1ccc2c(c1)OCO2)C1CCC(CNc2c(N3CCCCC3)c(=O)c2=O)CC1 (stereo not given),"inconclusive: 126 µM [inhibitor, partial curve, poor fit]",
CN(C)S(=O)(=O)c1cccc(NC(=O)CCc2nc3cc(S(=O)(=O)N4CCOCC4)ccc3n2C)c1,"inconclusive: 39.8 µM [inhibitor, single point]",
O=C(COC(=O)/C=C/c1ccc(Br)o1)Nc1ccc2[nH]c(=O)[nH]c2c1,"inconclusive: 35.5 µM [inhibitor, single point]",
COc1cc([N+](=O)[O-])ccc1NC(=O)CC1SC(=Nc2ccc(F)cc2)N(CCC2=CCCCC2)C1=O (stereo not given),"inconclusive: 2.82 µM [inhibitor, full curve, poor fit]",
CC(C)(C)NS(=O)(=O)c1ccc(Oc2ncc(C(F)(F)F)cc2Cl)cc1,active: 5.01 µM,
Cc1nnc(SCCn2c(N3CC(C)CC(C)C3)nc3c2c(=O)n(C)c(=O)n3C)s1 (stereo not given),"inconclusive: 0.141 µM [inhibitor, full curve, poor fit]",
COc1ccccc1NS(=O)(=O)c1ccc(C(=O)NCC(c2ccc(F)cc2)N2CCOCC2)cc1 (stereo not given),,inactive: 155%
CN1CCC(=NNC(=O)c2cn(-c3ccccc3)nc2-c2ccccc2)CC1,"inconclusive: 17.8 µM [inhibitor, single point]",
O=C(Cn1nc(C(=O)O)c2ccccc2c1=O)Nc1cc(Cl)cc(Cl)c1,active: 11.2 µM,
Cc1ccc(C2C(C#N)=C(N)Oc3n[nH]c(C)c32)cc1 (stereo not given),,inactive: -23.5%

Compound,Potency,"activity change, negative = inhibition"
O=C(CSc1nc2ccccc2[nH]1)Nc1cccc(S(=O)(=O)N2CCOCC2)c1,"inconclusive: 3.98 µM [inhibitor, partial curve, poor fit]",
Cc1ccc(NC(=O)CC2S/C(=N/N=C3\CCCc4ccccc43)NC2=O)cc1 (stereo not given),active: 3.16 µM,
COCCn1c(Sc2nc(C)cs2)nc2c1c(=O)[nH]c(=O)n2C,active: 0.158 µM,
O=C(Nc1ccc(F)cc1)Nc1cc(OCC(F)(F)F)cc(OCC(F)(F)F)c1,,inactive: -20.7%
COc1cc(-c2nnc(SCc3cc(=O)oc4cc(O)c(O)cc34)o2)cc(OC)c1OC,"inconclusive: 15.8 µM [inhibitor, partial curve]",
CC(OC(=O)COc1ccc(Nc2ccccc2)cc1)C(=O)N(C)c1ccccc1 (stereo not given),active: 39.8 µM,
Cc1cc(C)cc(-n2c(C)cc(/C=N\NC(=O)COc3cccc4cccnc34)c2C)c1,"inconclusive: 1 µM [inhibitor, full curve, poor fit]",
CC(NC(=O)C1CCCN(S(=O)(=O)c2cccs2)C1)c1ccccc1 (stereo not given),active: 3.16 µM,
CCOc1ccc2cc(S(=O)(=O)N3CCOCC3)ccc2c1,active: 0.398 µM,
COc1ccc2oc(C(=O)Nc3ccccn3)c(C)c2c1,,inactive: -1.03%
CCc1noc(C)c1C(=O)N(C)CC(=O)Nc1ccc(F)c(F)c1F,"inconclusive: 39.8 µM [inhibitor, single point]",
CC(CCc1ccccc1)NC(=O)CSc1ccccc1 (stereo not given),,inactive: -15.6%
O=c1[nH]c(=S)n(Cc2ccco2)c(O)c1C=NCc1cccs1,active: 17.8 µM,
COc1ccc([N+](=O)[O-])cc1/C=N/NC(=O)CNC(=O)C(c1ccccc1)c1ccccc1,"inconclusive: 8.91 µM [inhibitor, full curve, poor fit]",
COc1ccc(-n2c(=S)[nH]c(=O)c3cccnc32)cc1,,inactive: -10.8%
O=C(NCC(c1cccs1)N1CCOCC1)C1CCN(S(=O)(=O)c2cccc(C(F)(F)F)c2)CC1 (stereo not given),"inconclusive: 39.8 µM [inhibitor, single point]",
CC1CCN(S(=O)(=O)c2ccc(NC(=O)c3cccs3)cc2)CC1,active: 28.2 µM,
Cc1cccc(N=Cc2cc(Br)cc(Cl)c2O)c1,"inconclusive: 35.5 µM [inhibitor, single point]",
CCc1nc2ccccc2c(C(=O)OCC(=O)N2CC(C)OC(C)C2)c1C (stereo not given),"inconclusive: 39.8 µM [inhibitor, single point]",
CCOc1cc(C=C(C(=O)OC)C(=O)OC)ccc1OCc1ccc([N+](=O)[O-])cc1,"inconclusive: 2.51 µM [inhibitor, partial curve, poor fit]",
O=C(Nc1nc2ccccc2[nH]1)C12CC3CC(CC(C3)C1)C2,"inconclusive: 7.08 µM [inhibitor, partial curve, poor fit]",
COc1ccc(C2CC(c3ccc(Cl)cc3Cl)Nc3nc(N)nn32)cc1 (stereo not given),"inconclusive: 11.2 µM [inhibitor, partial curve, poor fit]",
